Among all 43,000 compounds or so, about 200 (0.47%) were called active. Inconclusive results (about 12%) are left out. Calls come from the whole dose curve; as a rule, active = well fitted cell-killing curve with a large enough effect; inconclusive = small, poorly fitted or top-dose-only effect, or effect the other way; inactive = flat fitted curve, though single readings scatter. This is one part of the list.
Test: Cell viability qHTS assay in S16 Pmp22-F2sN cells; note: nearly all actives have a fitted effect of over 65% in size
Conditions: S16 Pmp22-F2sN Schwann cells (luciferase reporters placed in the Pmp22 gene) viability, CellTiter-Glo, 24 h; series mostly up to 57.5 µM; activity change, negative = cytotoxicity: at the top concentration
Summary of the method: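 Luminescence from CellTiter-Glo, read by CCD camera after a 15 min room-temperature incubation, served as the viability signal. Reporter Schwann cells (S16 Pmp22-F2sN) had been treated with pin-transferred compounds for 24 h at 37C.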
% is set by controls: 0 for no effect and ±100 for the full control effect; potency is the fitted concentration of half-maximal effect.

Row | Structure (SMILES) | activity change, negative = cytotoxicity | Potency
1 | CC(=O)N1c2ccccc2C(=O)C1N1CCN(c2ccc(Cl)cc2)CC1 (stereo not drawn) | inactive: 14.1% | –
2 | COc1ccc(NCc2cc3cc4c(cc3n(CC(=O)Nc3ccc(C)cc3C)c2=O)OCO4)cc1 | inactive: 13.9% | –
3 | CCOc1c(Br)cc(C2C=C(C(=O)O)Nc3ncnn32)cc1OC (stereo not drawn) | inactive: 5.08% | –
4 | O=C(NCc1ccccc1)c1cc(Sc2cccc(Cl)c2)nc2ccccc12 | inactive: 13% | –
5 | CCOC(=O)c1cc(OC(=O)c2ccccc2F)n(-c2ccccc2)n1 | inactive: 0.13% | –
6 | CC1=C(c2ccc(C(C)C)cc2)S(=O)(=O)N=C1N1CCN(c2ccccc2F)CC1 | inactive: 1.79% | –
7 | Cc1ccc(-c2nc(S(=O)(=O)c3ccc(F)cc3)c(N3CCN(c4ccccc4)CC3)o2)cc1 | inactive: -7.42% | –
8 | CC(C)C[C@H](N)c1nnc(SCc2ccc(Cl)cc2Cl)o1 | inactive: 4.72% | –
9 | CCOC(=O)C1CCCN(S(=O)(=O)c2cc(-c3onc(C)c3C)ccc2OC)C1 (stereo not drawn) | inactive: -2.75% | –
10 | CCOc1ccccc1NC(=O)c1nc(S(=O)(=O)Cc2cccc(C)c2)ncc1Cl | – | active: 3.16 µM
11 | COc1ccc(S(=O)(=O)N(CC(=O)NCCSc2ccc(C)cc2)c2ccc(C)cc2)cc1 | inactive: 12.2% | –
12 | CCOc1ccccc1NC(=O)CSc1c2c(nc3ccc(Cl)cc13)CCCC2 | inactive: -0.351% | –
13 | CC(=O)N1CCC(N(Cc2ccc(C)o2)C(=O)Nc2ccccc2F)CC1 | inactive: 11.7% | –
14 | Cc1nc2c(c(C)c1CCC(=O)NCc1ccc(F)cc1)c(=O)n(C)c(=O)n2C | inactive: -16.5% | –
15 | CC1CCc2onc(C(=O)Nc3ccc(Cl)cc3)c2C1 (stereo not drawn) | inactive: 3.4% | –
16 | COc1ccc(-c2noc(CNC(=O)c3cc(OC)c(OC)c(OC)c3)n2)cc1 | inactive: 6.99% | –
17 | COc1cccc(-c2nc(-c3ccc(Br)o3)no2)c1 | inactive: -0.078% | –
18 | Cc1[nH]c2ccc(C(=O)NCCCN3CCCCC3)cc2c1C | inactive: 7.22% | –
19 | Cc1cc2c(cc1S(=O)(=O)N(CCN(C)C)Cc1ccccc1)OCC(=O)N2 | inactive: 19% | –
20 | COC(=O)c1ccc(NC(=O)c2c(NCc3cccc(F)c3)sc3c2CCCC3)cc1 | inactive: 17.7% | –
21 | COc1ccccc1C(c1c(O)cc(C)n(Cc2ccco2)c1=O)N1CCCCC1 (stereo not drawn) | inactive: 1.46% | –
22 | CCC(Oc1ccccc1F)C(=O)Nc1cc(-c2ccccc2)no1 (stereo not drawn) | inactive: 2.15% | –
23 | COc1ccc(C(=O)NCCn2cc(SCC(=O)Nc3ccc4c(c3)OCCO4)c3ccccc32)cc1 | inactive: 9.31% | –
24 | Cc1cccc(N2CCN(S(=O)(=O)c3cc(C(=O)Nc4ccc(Oc5ccccc5)cc4)ccc3F)CC2C)c1 (stereo not drawn) | inactive: -18.6% | –
25 | COc1ccc(CNC(=O)Cn2c(=O)c3cccn3c3cccnc32)cc1 | inactive: 0.924% | –

Row | Structure (SMILES) | activity change, negative = cytotoxicity | Potency
26 | COc1ccc(C(=O)Nc2nnc(SCc3cc(=O)c4cc(C)ccc4[nH]3)s2)cc1OC | inactive: -0.169% | –
27 | Cc1cccn2c(=O)c(C(=O)N3CCN(c4ccccc4F)CC3)cnc12 | inactive: -6.06% | –
28 | Cc1nn(-c2ccccc2)c2sc(C(=O)Nc3ccc(Cl)cc3Cl)cc12 | inactive: -5.56% | –
29 | CCCCN(C)CCNC(=O)c1nn(-c2ccc(OC)c(Cl)c2)c(=O)c2c1c1ccccc1n2C | inactive: 12.1% | –
30 | Cc1cc(C)c(S(=O)(=O)NCc2ccc3c(c2)CCN3C(=O)c2ccccc2)c(C)c1 | inactive: -21.2% | –
31 | CCN(CC)c1ccc2cc(-c3nnc(Nc4ccc(C)cc4)s3)c(=O)oc2c1 | inactive: -3.38% | –
32 | COC(=O)C1=C(CS(=O)(=O)c2ccc(C)cc2C)NC(=O)NC1c1ccc(C)cc1 (stereo not drawn) | inactive: -5.04% | –
33 | Cc1ccc(NC(=O)CSCc2cnn(-c3ccccc3)c2-n2cccc2)c(C)c1 | inactive: -20.5% | –
34 | CCOc1cccc2sc(N(Cc3cccnc3)C(=O)C3CCCCC3)nc12 | inactive: 2.42% | –
35 | CCc1ccccc1NC(=O)c1ccc(F)c(S(=O)(=O)NC2CCCCCC2)c1 | inactive: 14.8% | –
36 | COc1ccc(C)cc1NCc1nnc2n1CCCCC2 | inactive: 5.88% | –
37 | O=C(CCCCn1c(=O)c2ccccc2n(Cc2ccc(Cl)cc2)c1=O)NCc1ccccc1Cl | inactive: -4.31% | –
38 | COc1ccc(-c2cc(C(=O)Oc3cccc(C)c3)c3ccccc3n2)cc1 | inactive: 1.59% | –
39 | COc1ccc(NC(=O)C2CCCN(C(=O)c3cnn(-c4ccc(F)cc4)c3-n3cccc3)C2)cc1 (stereo not drawn) | inactive: 12.1% | –
40 | COc1ccc(NC(=O)CSc2nc3ncccc3[nH]2)c(OC)c1 | inactive: 0.632% | –
41 | Cn1c(=O)cc(OCC(=O)N2CCN(c3ccccc3)CC2)c2ccccc21 | inactive: 1.03% | –
42 | CN1CCN(C(c2ccccc2Cl)c2sc3nc(-c4ccco4)nn3c2O)CC1 (stereo not drawn) | inactive: 0.28% | –
43 | CCC(=O)N1CCc2cc(Br)cc(S(=O)(=O)N3CCN(c4ccc(C(C)=O)cc4)CC3)c21 | inactive: -1.84% | –
44 | Cc1ccc2ncc(C(=O)NCc3ccccc3Cl)c(=O)n2c1 | inactive: -15.3% | –
45 | CC(=O)Nc1ccccc1-c1nc2ccccc2n(CC(=O)c2ccc(C)c(C)c2)c1=O | inactive: -1.58% | –
46 | CCCS(=O)(=O)c1ncc(Cl)c(C(=O)N2CCN(c3ccc(OC)cc3)CC2)n1 | – | active: 5.01 µM
47 | COc1ccc(OCC(=O)NCC2(N3CCN(C)CC3)CCCCC2)cc1 | inactive: 7.44% | –
48 | CCCCNC(=O)CCC(=O)NNc1nc2ccccc2c2nc(-c3ccccc3)nn12 | inactive: -11.2% | –
49 | CC(C)(C)OC(=O)N1CCC(c2c(C(=O)NC3CCN(Cc4ccccc4)CC3)cnn2-c2cccc(F)c2)CC1 | inactive: -18.8% | –
50 | Cc1cccc(C(=O)Nc2c3c(nn2-c2ccc(Cl)cc2)CS(=O)(=O)C3)c1 | inactive: 2.53% | –

Row | Structure (SMILES) | activity change, negative = cytotoxicity | Potency
51 | O=[N+]([O-])c1cc(-c2nc(-c3ccccc3)no2)ccc1NCC1CCCO1 (stereo not drawn) | inactive: 14.7% | –
52 | CCOC(=O)c1ccc2c(c1)N(Cc1cccc(OC)c1)C(=O)c1ccccc1S2(=O)=O | inactive: -0.753% | –
53 | Cc1oc2c(c1C(=O)Nc1cccc(Br)c1)C1=NCCN1C=N2 | inactive: 6.17% | –
54 | COc1cc(NC(=O)c2c(-c3ccc(C)cc3)nnc3ccccc23)cc(OC)c1OC | inactive: -3.43% | –
55 | O=C(Cn1nc(-c2ccccc2)ccc1=O)NCc1ccc(F)cc1Cl | inactive: 0.583% | –
56 | COc1ccccc1CNC(=O)CC1N=C2c3ccccc3N=C(SCC(=O)Nc3ccc(F)cc3)N2C1=O (stereo not drawn) | inactive: 0.0747% | –
57 | CCOc1cc(C(=O)Nc2ccc3oc(-c4ccc(F)cc4Cl)nc3c2)cc(OCC)c1OCC | inactive: 1.2% | –
58 | COc1ccc(N(Cc2cccs2)C(=O)c2ccccc2C)cc1 | inactive: -6.38% | –
59 | Cc1ccc(NC(=O)c2cc(C)nn2-c2ccccc2)cc1 | inactive: 7.31% | –
60 | CC(=O)Nc1ccc(NC(=O)CCCc2nc(-c3ccc(C(C)(C)C)cc3)no2)cc1 | inactive: 3.26% | –
61 | CC(=O)c1ccc(N2C(=O)N(Cc3cccc(C(F)(F)F)c3)c3ccccc3S2(=O)=O)cc1 | inactive: 24.4% | –
62 | CC1=C(C(=O)OC2CCCC2)C(c2ccc(F)cc2F)CC(=O)N1 (stereo not drawn) | inactive: 23.2% | –
63 | COc1ccccc1NC(=O)CCS(=O)(=O)c1ccc2nc(C)sc2c1 | inactive: -6.93% | –
64 | CC(=O)N1CCC(N(C(=O)Nc2ccc(C)c(F)c2)C(C)C)CC1 | inactive: 0.299% | –
65 | Cc1ccc(NC(=O)c2oc3ccccc3c2NC(=O)Cc2cccs2)cc1 | inactive: 10.9% | –
66 | CCOc1ccccc1NC(=O)Nc1nnc(N(C)Cc2ccccc2)s1 | inactive: -10.5% | –
67 | CCn1c(C(=O)N2CCCC(C(=O)NCCCOC)C2)cc2sccc21 (stereo not drawn) | inactive: 1.46% | –
68 | COc1cc(Cl)c(C)cc1NC(=O)CCc1c(C)nc2cc(-c3cccc(F)c3)nn2c1C | inactive: 1.52% | –
69 | CCc1c(C)sc2c1CCN(C(=O)Nc1ccccc1C(F)(F)F)C2c1ccccc1 (stereo not drawn) | inactive: -20.7% | –
70 | Cc1ccccc1NC(=O)c1c(NC(=O)C(C)Oc2cccc(Cl)c2)sc2c1CCCC2 (stereo not drawn) | inactive: 8.74% | –
71 | Cc1ccc(-c2nc3ccc(Cl)cn3c2Nc2ccc3c(c2)OCCO3)o1 | inactive: 1.07% | –
72 | COc1ccc(-c2nc(CS(=O)CC(=O)NCc3ccc(F)cc3)c(C)o2)cc1OC (stereo not drawn) | inactive: -14.6% | –
73 | CCCCOc1ccc(C2=NC(c3ccncc3)=Nc3ccc(Br)cc3N2)cc1 | inactive: -0.708% | –
74 | COc1ccc(N2CCN(C(CNC(=O)CC(C)C)c3ccc4c(c3)OCO4)CC2)cc1 (stereo not drawn) | inactive: 8.26% | –
75 | CCc1cccc(CC)c1NC(=O)Cn1nnc2sc(-c3ccccc3)cc2c1=O | inactive: 8.43% | –

Row | Structure (SMILES) | activity change, negative = cytotoxicity | Potency
76 | Cc1ccc(/C=C/c2onc(C)c2S(=O)(=O)N2CCC(C(=O)N3CC(C)Oc4ccccc43)CC2)cc1 (stereo not drawn) | inactive: 4.08% | –
77 | CCCCCn1c(=O)[nH]c2cc(C(=O)N3CCN(c4ccccc4)CC3)ccc2c1=O | inactive: 8.74% | –
78 | CCOc1ccccc1N(CC)C(=O)Nc1cn(C)c(=O)c2ccccc12 | inactive: 3.66% | –
79 | COc1ccc(OCC(=O)Nc2ccc(C(=O)OCc3cc(=O)n4nc(C)sc4n3)cc2)cc1 | inactive: 3.48% | –
80 | CC(=O)Nc1nonc1-c1nnc(SCC(=O)Nc2ccc(F)cc2F)n1-c1ccccc1 | inactive: -5.17% | –
81 | Cc1c(C)n(Cc2ccccc2)c2ccc(C(=O)NC(C)c3ccccc3)cc12 (stereo not drawn) | inactive: -1.34% | –
82 | Cc1ccc(Cn2c(CNS(=O)(=O)c3c(C)cc(C)cc3C)nc3cccnc32)cc1 | inactive: -2.22% | –
83 | Cc1cccc(OCCSc2nc3ccccc3n2CC(=O)N2CCCCC2)c1C | inactive: -13.7% | –
84 | CCn1ccc2cc(S(=O)(=O)N3CCCN(C(=O)Nc4ccccc4OC)CC3)ccc21 | inactive: 5.38% | –
85 | CCc1ccc(OCC(=O)N(Cc2cccs2)c2ccc(Cl)cc2)cc1 | inactive: 3.67% | –
86 | CCOC(=O)N1CCN(S(=O)(=O)N2CCCC(C(=O)NCc3cc(OC)ccc3OC)C2)CC1 (stereo not drawn) | inactive: -1.15% | –
87 | COc1ccc(N2CC(NC(=O)/C=C\c3ccc(OC)c(OC)c3)CC2=O)cc1 (stereo not drawn) | inactive: -2.91% | –
88 | Cc1nc(CC(=O)Nc2ccc(C)c(C)c2)cs1 | inactive: 2.24% | –
89 | CCOCCCNC(=O)C1CCCN(Cc2nc(-c3ccc(CC)cc3)oc2C)C1 (stereo not drawn) | inactive: 9.93% | –
90 | CCN(C(=O)CCc1nc(-c2ccc(C)cc2)no1)c1cc(C)ccc1C | inactive: 3.93% | –
91 | CCCCN(C)CCCNC(=O)c1ccc2nc(N3CCCCC3)sc2c1 | inactive: 4.2% | –
92 | Cc1cc2oc(=O)c(CC(=O)NCCc3ccccc3)c(C)c2c2occ(C(C)(C)C)c12 | inactive: 2% | –
93 | COc1cc2c(cc1NC(=O)COc1cc(C)ccc1C)oc1ccccc12 | inactive: -2.54% | –
94 | COc1ccc(-c2cn3c(n2)sc2cc(C(=O)NC4CCCc5ccccc54)ccc23)cc1 (stereo not drawn) | inactive: -10.2% | –
95 | Cc1cc(C(=O)O)c2c(=O)n(C)c(=O)n(C)c2n1 | inactive: 1.54% | –
96 | CCOCCCNC(=O)Cn1nc(C)n2c(cc3cc(C)ccc32)c1=O | inactive: 14% | –
97 | O=C(COc1ccccc1Cl)Nc1nc2c(s1)CCCC2 | inactive: -10.5% | –
98 | CCCCN(CCCNC(=O)CN1N=C(c2ccccc2)CCC1=O)c1ccccc1 | inactive: -11.9% | –
